# Results: the supplement of paper PMC11417369
# ± gives the standard deviation of the averaged measurements. Some of the results follow.
# Tested on: PfAP2-EXP AP2 domain (GST-tagged)
# Assay: gcPBM binding intensity (ln(normalized median fluorescence intensity)); higher = stronger DNA binding
# Procedure, shortened: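 Using an Agilent 4 × 180k array, primer-extended double-stranded 36-bp intergenic genomic probes and negative controls were exposed for 1 h to GST-fused P. falciparum DNA-binding domains expressed in E. coli. Binding was carried out in 1× PBS with 1% milk, 0.2 mg/ml BSA, 0.5% salmon testes DNA and 0.03% Triton X-100, and protein was detected with Alexa488 anti-GST antibody and a 488 nm scan. Binding intensity is the highest Masliner-normalised natural-log median intensity across replicate spots of either probe orientation.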
row,Sequence,gcPBM binding intensity (ln)
1,ACTAAATAAATAAATATAATATATAAATATGTATGT [TGCATGCA_negctrl_site583],8.31 ± 0.33
2,ACATGCAAGAAGAAATGTACTTAACATCTATATAGA [XGTACX_site7338],8.78 ± 0.44
3,TATAATATATAAAAATGTACACATAAATATAAGTAG [XGTACX_site665],8.78 ± 0.3
4,CACAAACAGACAAACACACACACACGGACATACATA [CACACA_site6350],8.69 ± 0.53
5,GTATATATGTTTTATACACACATTAAAGGAAATATA [CACACA_site984],8.54 ± 0.46
6,TTACATATTCATAAAAGTACATAATTATAAAAGGTA [XGTACX_site906],8.67 ± 0.4
7,TTTTATACATATTTTACACACTAAAATATACAGATA [CACACA_site4333],8.41 ± 0.26
8,AAAATTAATTTATTTACACACAATATTAAAATATTT [CACACA_site7512],8.48 ± 0.52
9,TAAAACTTAATGTTTTGTACATATTCTTCTTTATTT [XGTACX_site4271],8.49 ± 0.26
10,AATCAAAAAGGAACCATAATATTACAACTATATATA [CACACA_negctrl_site381],8.47 ± 0.47
11,TTAACAAAGAAACACACACACACACCCAAAAAAAAA [CACACA_site516],8.54 ± 0.53
12,ATTATTATAGATAAAACACACAATTTTGTTTTCACA [CACACA_site7792],8.28 ± 0.4
13,AAAAAAAAAATTAAATGTACATATATAATATATATA [XGTACX_site7245],8.62 ± 0.014
14,GCCATAAAGATATATACACACATAAAAAAAAGTTAT [CACACA_site6674],8.65 ± 0.52
15,TTATATTTTATTATGTGTACGTATATAATATAATAT [XGTACX_site6230],8.52 ± 0.16
16,AAACAATTATTATATTGTACATATATTACATTATTA [XGTACX_site1089],8.25 ± 0.44
17,GTTATTAAATAATTCACACACATATATAAATAAATA [CACACA_site7129],8.31 ± 0.48
18,ATATGTATATAATAAGAACACACATATATTTAATTT [CACACA_site8961],8.38 ± 0.33
19,ATAAAAATATATGAAACACACAGTTTCTATAAGAAA [CACACA_site4156],8.34 ± 0.41
20,TAATATACTATAAATACACACAAGTGTACATACTTC [CACACA_site983],8.47 ± 0.11
21,TTAAAAAGAGGTGACACACACATATAAATCTAAATC [CACACA_site3738],8.66 ± 0.38
22,TATTAAAAGGTGAGTACACACATATCTGAGTATATA [CACACA_site5192],8.39 ± 0.23

row,Sequence,gcPBM binding intensity (ln)
1,TACAATATAATTTAATGTACATGTGAATATATATAT [XGTACX_site4675],9.34 ± 0.11
2,TTGTGCTAAACAAAAAAAAATATATATAAAAAAATA [XGTACX_negctrl_site388],8.41 ± 0.26
3,ATATGTATATTTTTGATGTGCTTTTATTTGGTTATT [CACACA_negctrl_site626],8.53 ± 0.42
4,CATCCACATAGATGTACACACATATATATATATATA [CACACA_site5616],10.1 ± 0.3
5,ATTTTTTTATAATCAACCCATTTCCTACATTTTTAT [CACACA_negctrl_site1237],8.75 ± 0.52
6,AAAAAAAATACATACACACACACACGCACATATATA [CACACA_site7645],8.76 ± 0.57
7,CTTCATAAAAATTGCACACATATAATAATGTACATA [CACACA_site2212],8.57 ± 0.23
8,ATATCTCAACATATCACACATATATATATATAATAT [CACACA_site5018],8.67 ± 0.44
9,AATAAATATAAATAAATAAATATATATATATATTTG [CACACA_negctrl_site1486],8.13 ± 0.22
10,TATTTTTTTTCGTAATGTACATAAAAAATGCAAAAA [XGTACX_site8491],9.16 ± 0.64
11,TATATATATATAACAACACACACAGATCATAAAACT [CACACA_site8670],9.91 ± 0.14
12,ATTATATAATTTAATCGTACACAAATATTTGTTAGT [XGTACX_site5913],8.71 ± 0.45
13,CTTTTAAAAAAATTCATGCACACGAAATAAAAAGCA [CACACA_site929],8.92 ± 0.28
14,TATTATTCCATGTGAAGTACAGAAATATAAATAAAT [XGTACX_site5106],8.63 ± 0.35
15,TAAGTAATAGTTTGTGCACACTCAAGTATATCATAT [CACACA_site4035],8.865 ± 0.021
16,CCATAATTATATGCCAGTACATATTTGTAACAAAAA [XGTACX_site851],8.67 ± 0.41
17,TTTATTTTTCATTGGGGTACACAAGTTTATTTTATT [XGTACX_site4263],9.04 ± 0.46
18,CAAAATATTTTTATAACACACATATATAGAATGTGC [CACACA_site1145],8.45 ± 0.46
19,TATCATCTTAATATCGTGCACATTTATAGAACGAAA [GTGCAC_site9992],9.13 ± 0.24
20,ATACCTCAAATTGATACACACAAAAAAAGTAAATTA [CACACA_site3134],8.64 ± 0.6
21,TTTTACTATACTTATGCACACAAGATAAATACATAT [CACACA_site5619],8.83 ± 0.028
22,CTATTTTAATATTTTACACACCATGTAAAATATATA [CACACA_site5732],8.48 ± 0.3

row,Sequence,gcPBM binding intensity (ln)
1,ATACACTAGAAAATTTTATAGTATTATTAATGTTAA [GTGCAC_negctrl_site101],8.19 ± 0.42
2,TTTTTATTCGTTAAATGTACAAAAAAAATGTTATAT [XGTACX_site2804],8.42 ± 0.41
3,GCTTAGTTATATAACTGTACTATTTTTATTTATATG [XGTACX_site884],9.16 ± 0.83
4,AAATACATACATTAATGTACAAATAGAAACACTCTT [XGTACX_site1512],8.51 ± 0.18
5,AAATATAAGTAAATAAATAAATATATAAATATATAA [TGCATGCA_negctrl_site441],8.12 ± 0.28
6,AATAAGATAAGGAAAAGTACTTATAATTAAACTAAT [XGTACX_site1850],8.79 ± 0.43
7,CTCATAGTTGGGTGCACACAAAAAATTAAAAAAATA [CACACA_site3032],9.81 ± 0.94
8,ATAAAGTAAGAAGAAATAATGATTTTCATGGAAAAC [XGTACX_negctrl_site322],8.51 ± 0.47
9,TTATTTAAAAATAGCACACATTATATATATATATAT [CACACA_site5556],9.95 ± 0.29
10,ACAGATGATCAAAATTGTACAGAGTTATATTATATT [XGTACX_site4642],8.46 ± 0.57
11,CTTATACAAAAAAAAAGTACATAACATAATAAGAAT [XGTACX_site6782],8.96 ± 0.42
12,GATAAACCATATATAACACACATATGAATATTGCAA [CACACA_site6735],8.59 ± 0.4
13,CACCCATACAGACATACACACACATATATATTAATA [CACACA_site8077],8.85 ± 0.66
14,ATATCATATATAAGTCGTACGATGAATAGAATTTTT [XGTACX_site7586],8.73 ± 0.52
15,CACATGTATTTATAGGTGCGTAAAAACACTTTATAT [GTGCAC_site9501],8.7 ± 0.057
16,ACTAATTACTATAAAACACACATATATTTATTTATA [CACACA_site7263],8.51 ± 0.34
17,TTATAGAAACATTGGTGTACGATATTTACTTCTTTC [XGTACX_site7314],8.36 ± 0.48
18,AATCATATTAGTATGGTGCAATATATATATAAATAT [GTGCAC_site9800],8.99 ± 0.028
19,GGAATAGTCGGGTGCATACACACCTTAAATATAATA [CACACA_site1081],8.84 ± 0.31
20,AAAGAAAATTCAATAGTGCATAAAAATATATATGTT [GTGCAC_site9680],8.64 ± 0.27
21,TAAAAAAATTCATGCACACGAAATAAAAAGCACCTT [CACACA_site4667],9.14 ± 0.057
22,TTTTTTAAAAGATAATATTTTATTAATGTATTCTCA [GTGCAC_negctrl_site598],7.85 ± 0.37

row,Sequence,gcPBM binding intensity (ln)
1,AATACATACATACATACACACATATATATATATTAT [CACACA_site3575],8.78 ± 0.33
2,TTTTCATTTTTTCGTTGTACATAAATAATATATATT [XGTACX_site856],8.96 ± 0.38
3,AAACATAAATTTTATTGTACATTATATAGAATTTTC [XGTACX_site576],8.21 ± 0.51
4,TTTTACTATACTTATGCACACAAGATATATACATAT [CACACA_site2968],8.6 ± 0.3
5,TATTAAAAGGTGAGTACACACATATATGTGTATATA [CACACA_site7070],8.63 ± 0.14
6,ATATATATATATATATGTACACAGGACAATAATCCT [XGTACX_site6383],10.2 ± 0.33
7,ATCATGAAATATATTTGTACACATAATAATATAATA [XGTACX_site8798],8.57 ± 0.28
8,ATTTGGCAGAAACACACACACACACCCACCCACATA [CACACA_site589],9.07 ± 0.44
9,TTTTTTTTTATAAATACACACGTACGGGTGCATAAC [CACACA_site8444],9.1 ± 0.38
10,TTTTTGTTTGAACACTGTACGTATAAATATAAAAGT [XGTACX_site6476],8.885 ± 0.078
11,AATGTACACCCACCCACACACAAACAAATATATATA [CACACA_site5521],9.51 ± 0.59
12,AATGTGTTTTTTTTTTTTTTTTTTTTCAATCTCTAT [CACACA_negctrl_site794],8.3 ± 0.52
13,GAAAAAAGAAAAAAAAGTACACACATGTATATTAAT [XGTACX_site5265],8.59 ± 0.55
14,TTATATTATGTTCAATCAAAAATTATTTTTAAAAAA [XGTACX_negctrl_site595],8.29 ± 0.25
15,TATATATAAAAACACACACACACACCCTATAATTAT [CACACA_site4063],8.89 ± 0.61
16,TTTCAAATTTAATACACACACAAGTATATATTTATC [CACACA_site3947],8.3 ± 0.43
17,TTGTGTTATCACACGAAGGGGATAAGACATAAATGT [TGCATGCA_negctrl_site368],8.49 ± 0.49
18,AATAATACATCCTTAGTGCAGAAATAAAAATTAAGC [GTGCAC_site9955],8.77 ± 0.3
19,TTTTCATTTGTGACAGTGCAAAATGTTATATTAAAA [GTGCAC_site9647],8.54 ± 0.29
20,TATAAAATGATGATATGTACTTATGTAGTTTTTTTA [XGTACX_site8711],8.07 ± 0.28
21,AATATATGGTTTCATGATATTAAATTCAAAATAATG [CACACA_negctrl_site318],8.21 ± 0.42
22,TATTTATTGTGACACTTATATTATTTTATGATTAAA [CACACA_negctrl_site525],8.48 ± 0.28
